In PubChem BioAssay (NCI):
Values joined by “and” are separate entries in the source; they are usually repeats but may differ in a detail not shown here. Equal values may be shown once.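 A five-concentration, 48-hour dose response in 96-well plates underlies each endpoint, interpolated linearly between surrounding concentrations. GI50: concentration for 50% inhibition of growth. TGI marks complete inhibition of growth.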

Test system: NCI-H322M lung
Assay: inhibition of tumour cell growth, NCI panel, 48 h

Compound	GI50	TGI
O=C1c2cc3c(cc2-c2c1c1ccc(Cl)cc1c(=O)n2CCCNCCO)OCO3	1.24 µM	2.65 µM
O=[N+]([O-])c1nccn1CC(O)CN1CC1 (stereo unspecified)	–	> 100 µM
C=C(CN1C(=O)[C@H]2CCCN2C(=O)c2ccccc21)c1ccc(C(=O)O)cc1	> 100 µM	> 100 µM
O=C1SS(=O)c2ccccc21 (stereo unspecified)	–	> 100 µM
COc1cc(C)c(Cl)cc1C1=NN(c2ccc(S(N)(=O)=O)cc2)C(/C=C/c2ccccc2)C1 (stereo unspecified)	4.97 µM	68.9 µM
Cc1cc2nc(CCC(=O)O)c(=O)[nH]c2cc1C	–	> 100 µM
CCOc1ccc(-c2nonc2NC(=O)c2cccc(C)c2)cc1OCC	> 100 µM	> 100 µM
O=C(CC(C(=O)c1cccs1)c1ccsc1)c1cccs1 (stereo unspecified)	–	> 100 µM
COc1ccc(C2CC(c3ccccc3)=Nc3c(-c4ccccc4)nnn32)cc1 (stereo unspecified)	–	85.9 µM
COC(=O)Nc1nc2cc(OC)c(OC)cc2c(=O)[nH]1	–	> 100 µM
COc1cc(/C=C2\C[C@H]3[C@@H]4CC=C5C=C(N6CCCC6)CC[C@]5(C)[C@H]4CC[C@]3(C)C2=O)cc(OC)c1OC	–	22.3 µM
O=C1/C(=C/c2ccccc2)CN(C(=O)c2cccnc2)C/C1=C\c1ccccc1	2.62 µM	7.09 µM
Nc1nc(N)c(NC(=O)CCCO)c(=O)[nH]1	–	> 100 µM
COc1ccccc1CCN=C1NC(=O)/C(=C/c2ccc3ncccc3c2)S1	6.49 µM	> 20.8 µM
CC(C)(C)c1cc(C(C)(C)C)c(SS(=O)(=O)O)c(O)c1O	–	> 100 µM
COc1cc(OC)c2c(=O)cc(-c3ccccc3F)[nH]c2c1	–	> 100 µM
CCN1CCN(c2ccc(Nc3ccnc4ccc5c(nnn5C)c34)cc2)CC1	–	30.5 µM
O=C(CO)CC(=O)C(=O)Nc1ccccc1	–	> 100 µM
C=C1C(=O)O[C@H]2[C@H]1CC/C(Cn1cc(-c3cc(C(F)(F)F)cc(C(F)(F)F)c3)nn1)=C\CC[C@@]1(C)O[C@@H]21	1.67 µM	3.6 µM
COc1ccc(C(=O)Cn2c(C(=O)/C=C/c3ccco3)nc3ccccc32)cc1	–	> 100 µM
CCCCCC/C=C1\CCC(CN2CCCC2)C1=O (stereo unspecified)	–	36 µM
Cc1nc(Nc2ccccc2Cl)sc1C(=O)CC(=O)C(=O)Nc1c(Cl)cccc1Cl	–	> 100 µM
[O-][n+]1onc2c1CCC(=N\O)/C2=N/Nc1ccccc1	–	> 100 µM
COC1CC(OC2C(C)OC(OC3C(C)OC(OC4C(O)CC(O[C@H]5CC[C@@]6(C)C(=CC[C@]7(O)[C@@H]6C[C@@H](OC(=O)/C=C/c6ccccc6)[C@@]6(C)[C@]7(O)CC[C@@]6(O)C(C)=O)C5)OC4C)CC3OC)CC2OC)OC(C)C1O (stereo partly specified)	–	> 6.25 µM
Cc1ccc(N=Nc2ccc(O)c(CN(C)C)c2)cc1C	–	> 100 µM
CCCCCCCCCc1cc(-c2ccc(C=O)s2)sc1-c1ccc(C=O)s1	–	> 100 µM

Compound	GI50	TGI
N#Cc1c(NN)nc(NN)c(C#N)c1-c1ccccc1	–	> 100 µM
O=c1[nH]/c(=C/c2ccc(OCc3ccccc3)cn2)c(=O)[nH]/c1=C/c1ccc([N+](=O)[O-])cc1	–	> 100 µM
N#CC(C(=O)/C(=N/N)C(C#N)c1ccccc1)c1ccccc1 (stereo unspecified)	–	> 100 µM
CC(C)(C)c1nn(-c2ccccc2)c2c1C(=O)CSC(c1ccccc1Cl)N2 (stereo unspecified)	7.92 µM	23.4 µM
O=c1cc2ccccc2nn1Cc1cccc(Cl)c1	–	> 100 µM
CC(=O)OCC(OC(C)=O)C(OC(C)=O)C(OC(C)=O)C(C=NN(C(C)=O)S(=O)(=O)c1ccc(/C=C2\NC(=O)N(C)C2=O)cc1)OC(C)=O (stereo unspecified)	–	> 100 µM
c1ccc(N=C(Nc2ccccc2)N2CCCCC2)cc1	–	> 100 µM
COc1ccc2c(=O)c3ccoc3n(CC=C(C)C)c2c1	–	> 100 µM
CCc1c(C#N)c(S[C@@H](C(N)=O)c2ccccc2)nc(N(C)C)c1C#N	> 100 µM	> 100 µM
CC(C)(C)c1cc(C2NCCO2)cc(C(C)(C)C)c1O (stereo unspecified)	–	> 100 µM
Fc1ccc2c(c1)c(-c1nc(-c3c[nH]c4ncccc34)cs1)cn2CCCN1CCCCC1	1.65 µM	3.06 µM
O=C(COc1ccc(OCC(=O)N2C(=O)CSC2=Nc2ccccc2)cc1)N1C(=O)CSC1=Nc1ccccc1	–	87.4 µM
C=CC[N+]12CN3CN(CN(C3)C1)C2	–	57.2 µM
CC1(C)N=C(N)N=C(N)N1c1ccc(OCCCCOc2ccc(S(=O)(=O)F)cc2)c(Cl)c1	0.356 µM	23 µM
N#CCCCC[N+]12CN3CN(CN(C3)C1)C2	–	> 100 µM
COC(=O)C1=C(C(=O)ON)C2C=CC1(C(Cc1ccccc1)Nc1ccccc1)O2 (stereo unspecified)	14.9 µM	28.3 µM
CN(C)c1ccc(/C=C2\C[C@H]3[C@@H]4CCc5cc(OCCN6CCCC6)ccc5[C@H]4CC[C@]3(C)C2=O)cc1	–	5.86 µM
CCC(CO)Nc1nc(NCc2ccccc2O)c2ncn(C(C)C)c2n1 (stereo unspecified)	5.24 µM	> 100 µM
C=C(C)C1Cc2c(cc(O)c3c(=O)c4c(oc23)C(O)Oc2cc(OC)c(OC)cc2-4)O1 (stereo unspecified)	–	> 10 µM
O=C1C=C(Sc2ccccc2)c2nccc3c2c1nc1ccccc13	–	97 µM
CC(=O)OC1COC(Nc2ccc(C(C)=O)cc2)C(OC(C)=O)C1OC(C)=O (stereo unspecified)	–	> 100 µM
COC(=O)c1ccccc1C1CN=NC12Cc1ccc(C)c(C)c1C2=O (stereo unspecified)	–	> 100 µM
O=c1ccn(C2OC(CO/N=C/c3ccc(O)c(O)c3O)C(O)C2O)c(=O)[nH]1 (stereo unspecified)	27.2 µM	66.7 µM
CC(C)(C)C(=O)C(C(=O)C(C)(C)C)C(=O)C(C)(C)C	–	> 100 µM
COc1cc(NC(C)=O)ccc1C(=O)N/N=C/c1ccc(Cl)cc1Cl	–	> 100 µM
C/C(=N\Nc1cc(C)c2cc(C)ccc2n1)c1ccccn1	< 0.0258 µM	1.22 µM

Compound	GI50	TGI
CC(=O)N1OC(C)CC1Nc1ccc(Br)cc1 (stereo unspecified)	–	> 100 µM
CNC(=O)c1n[nH]nc1Sc1c([N+](=O)[O-])ncn1C	–	> 100 µM
Cc1ccc2c(=O)c3cccc(CC(=O)O)c3[nH]c2c1C	–	> 100 µM
Nc1ncnc2c1nc(Cl)n2C1OC2COP(=O)(O)OC2C1O (stereo unspecified)	–	> 300 µM
CC(=O)OC(C)C1C2=C(C(=O)CC1(C)O)C(=O)c1c(ccc(-c3ccc4c(c3O)C(=O)C3=C(C4=O)C(C(C)OC(C)=O)C(C)(O)CC3=O)c1O)C2=O (stereo unspecified)	–	25 µM
CCOc1ccccc1NC(=O)CC1SC(=Nc2ccc([N+](=O)[O-])cc2)NC1=O (stereo unspecified)	–	84.3 µM
O=C1c2ccccc2C(=O)c2c(Nc3ccc4c5c(cccc35)C(=O)c3ccccc3-4)cccc21	–	> 100 µM
CC1(CO)OC(n2cc(C(=O)NC(=O)OCc3ccccc3)c(=O)[nH]c2=O)CC1O (stereo unspecified)	–	> 100 µM
O=C1C(=O)c2ccccc2C(O)=C1CC=C(Br)Br	12.9 µM	72.4 µM
O=C(/C=C/c1cccnc1)NCCCCC1CCCN(C(=O)c2ccccc2)C1 (stereo unspecified)	> 45.3 µM	> 100 µM
NC(N)=N/N=C\c1cccc(OCc2ccccc2)c1	9.85 µM	23.8 µM
O=C(NC(CS)C(=O)O)c1cccc2c(=O)c3ccccc3[nH]c12 (stereo unspecified)	–	> 100 µM
COc1ncc(-c2ccc3nccc(-c4ccnnc4)c3c2)cc1NS(=O)(=O)c1ccc(F)cc1F	0.00928 µM and < 0.01 µM	1.21 µM and 1.11 µM
CC(C)(C)OC(=O)c1cnc(Cl)cn1	–	97 µM
c1ccc(Cc2nc(Cc3n[nH]c(Cc4ccccc4)n3)n[nH]2)cc1	–	> 100 µM
CC(C)(C)c1cc(-c2cc(C(C)(C)C)n(-c3ccccc3)n2)nn1-c1ccccc1	–	> 100 µM
COC(=O)C1(c2cc3ccccc3n2S(=O)(=O)c2ccccc2)CC2C=CC1NC2 (stereo unspecified)	–	11 µM
COc1cc(-c2nn(-c3cccc(NC(=O)Nc4cc(C(F)(F)F)cc(C(F)(F)F)c4)c3)cc2-c2ccncc2)ccc1Cl	1.13 µM	4.21 µM
Nc1nc(Cl)c2ncn(Cc3ccc(CCl)cc3)c2n1	–	43 µM
COc1ccc(/C=C/C(=O)/C=C/c2ccc(OC)cc2)cc1	–	> 100 µM
O=NNc1ccc(S(=O)(=O)c2ccccc2)cn1	–	> 100 µM
CN(C)c1ccc(/C=c2/c3ccccc3n3nc4ccccc4c23)cc1	–	> 100 µM
CCCc1cc2c(=O)c(C(=O)OC)c[nH]c2cc1N(CC)CC	68.5 µM	> 100 µM
O=C(CC(C(=O)c1ccco1)c1ccsc1)c1ccco1 (stereo unspecified)	–	> 100 µM
COc1c(OC)c(OC)c2c(c1OC)c(=O)c1ccccc1n2C	–	> 100 µM
CC(C)=NN/C(=N\S(=O)(=O)c1ccc(C)cc1)Nc1ccc(Cl)cc1	–	> 100 µM

Compound	GI50	TGI
C#CCOc1c(C(=O)OCC)c(=O)n(C)c2ccccc12	–	> 100 µM
BrC1=CC=C2NC=CC3=CC=NC1C32 (stereo unspecified)	–	> 92.9 µM
CC(C)[C@H](CO)Nc1nc(Nc2ccc(C(=O)NCCNS(=O)(=O)c3cccc4c(N(C)C)cccc34)c(Cl)c2)c2ncn(C(C)C)c2n1	3.63 µM	> 100 µM
CC(C)c1ccc(C2C3=C(N=C4SCC(=O)N42)C(=O)c2ccccc23)cc1 (stereo unspecified)	–	> 100 µM
COC(=O)c1sc2ncc3c(c2c1N)CCCCCC3	–	> 100 µM
Cc1ccc(NN=NCCCCN)cc1	–	> 100 µM
O=C(CCc1ccccc1)ON1C(=S)NC(c2ccccc2)(c2ccccc2)C1=S	–	> 100 µM
O=C1c2ccccc2NC(=O)C2C1C(c1ccccc1)CC2(O)c1ccccc1 (stereo unspecified)	–	> 100 µM
COc1cc2c3c(n(CCCN)c(=O)c2cc1OC)-c1cc2c(cc1/C3=C\CCN)OCO2	0.528 µM	–
CCCCc1c2c(nc3c1CCCC3O)CCCC2 (stereo unspecified)	–	> 100 µM
CC(=O)[C@@]1(O)CC[C@H]2[C@@H]3C[C@H](C)C4=CC(=O)CC[C@]4(C)[C@H]3[C@@H](O)C[C@@]21C	–	> 100 µM
CC(C)=CCNc1ncnc2nc[nH]c12	–	> 100 µM
N#Cc1c(O)c(N=Nc2ccccc2F)c(=O)n2c1[nH]c1ccccc12	–	> 100 µM
C=CCN1C(=O)/C(=C/c2ccc(OC)cc2)NC1=S	–	> 100 µM
CCOC(=O)c1[nH]c(Br)c(-c2ccc(Br)cc2)c1Br	14.7 µM	> 100 µM
CC(=O)OCC1OC(n2c(-c3ccccc3)c(C(C)=O)c(-c3ccc(Cl)cc3)c(C#N)c2=S)C(OC(C)=O)C(OC(C)=O)C1OC(C)=O (stereo unspecified)	–	> 100 µM
O=C1C(N2CCNCC2)=C(Cl)C(=O)c2ncccc21	–	> 10 µM
CC[C@H](Nc1nc(NCc2cnc(C)cc2C)c2ncn(C(C)C)c2n1)[C@@H](C)O	0.361 µM	> 100 µM
CCn1c(CN2CCN(Cc3ccccc3)CC2)nc2cc(NC(=O)c3cccs3)ccc21	33.2 µM	> 100 µM
Cc1ccc(NC(=O)CSc2nc(C)nc3c2sc(=S)n3-c2ccccc2)cc1	–	> 10 µM
NNC(=O)c1ccccc1NC(=O)/C(=C/c1ccccc1O)NC(=O)c1ccccc1	–	> 100 µM
CC(=O)OC[C@]1(O)CC[C@@]23CC1C[C@@H]2CCC1C(C)(C)CCC[C@@]13C (stereo partly specified)	–	29.9 µM
COc1ccc2nc3ccc(OC)cc3c(SCc3ccc([N+](=O)[O-])cc3)c2c1	–	> 100 µM
